Experimental data from article PMC4336329 (PLoS ONE, 2015).
Hit rate of the full screen: of about 310,000 compounds, about 14,000 (4.5%) showed an effect of 50% or more. Effects have a minus sign here. The list shows a part of the results.

biological target: human ether-à-go-go-related gene (hERG) potassium channel (human, UniProt Q12809); experiment: primary screen, population patch clamp on CHO cells stably expressing hERG
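Further: peak tail current of the secondary pulse compared with the same well before compound.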

human ether-à-go-go-related gene (hERG) potassium channel, sequence (Q12809 whole entry, looked up): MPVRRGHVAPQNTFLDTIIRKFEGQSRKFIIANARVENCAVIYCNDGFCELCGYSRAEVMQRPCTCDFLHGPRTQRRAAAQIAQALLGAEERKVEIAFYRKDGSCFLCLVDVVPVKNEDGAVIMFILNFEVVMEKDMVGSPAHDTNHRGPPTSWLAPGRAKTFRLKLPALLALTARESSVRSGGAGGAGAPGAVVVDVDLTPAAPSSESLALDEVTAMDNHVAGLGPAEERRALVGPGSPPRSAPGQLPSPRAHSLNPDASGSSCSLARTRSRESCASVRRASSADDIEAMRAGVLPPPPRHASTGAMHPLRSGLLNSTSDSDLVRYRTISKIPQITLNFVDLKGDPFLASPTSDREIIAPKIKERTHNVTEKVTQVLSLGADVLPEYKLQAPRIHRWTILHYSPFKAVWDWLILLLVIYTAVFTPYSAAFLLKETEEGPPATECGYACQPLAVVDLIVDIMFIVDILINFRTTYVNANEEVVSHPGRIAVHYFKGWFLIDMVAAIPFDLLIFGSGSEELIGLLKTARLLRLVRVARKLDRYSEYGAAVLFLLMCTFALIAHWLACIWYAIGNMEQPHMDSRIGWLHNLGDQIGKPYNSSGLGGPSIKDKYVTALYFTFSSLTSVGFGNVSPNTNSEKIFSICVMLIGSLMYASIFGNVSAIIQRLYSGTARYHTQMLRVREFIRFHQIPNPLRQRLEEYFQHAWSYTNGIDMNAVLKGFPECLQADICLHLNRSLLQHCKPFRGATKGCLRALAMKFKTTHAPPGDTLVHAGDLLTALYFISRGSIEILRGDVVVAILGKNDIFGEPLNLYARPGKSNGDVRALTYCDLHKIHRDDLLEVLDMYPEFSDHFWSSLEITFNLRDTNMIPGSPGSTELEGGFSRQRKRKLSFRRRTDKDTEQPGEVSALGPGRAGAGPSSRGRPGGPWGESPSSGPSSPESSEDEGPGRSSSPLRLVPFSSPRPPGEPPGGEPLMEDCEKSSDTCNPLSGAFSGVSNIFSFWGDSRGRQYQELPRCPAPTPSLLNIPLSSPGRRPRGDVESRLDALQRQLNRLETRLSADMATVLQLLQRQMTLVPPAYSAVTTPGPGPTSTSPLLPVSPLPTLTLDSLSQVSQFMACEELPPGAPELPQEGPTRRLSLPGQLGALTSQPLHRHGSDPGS

Row | SMILES | hERG current change (%, negative = inhibition) at 10uM [%]
1 | COCCN(CCOC)C(=O)c1sc2nc(-c3ccccc3)cn2c1C | -16.6
2 | Cc1nn2c(N3CCOCC3)cc(C(C)(C)C)nc2c1-c1ccccc1 | 15.7
3 | Cc1ccc(CNC(=O)CSc2nc3ccsc3c(=O)n2Cc2ccc(C(=O)O)cc2)cc1 | 11.7
4 | O=C1CCC(C(=O)N2CCC(O)(c3ccccc3)CC2)CN1CCc1ccccc1 (stereo not drawn) | -16.3
5 | CCN(CC)C(=O)c1ccc(NC(=S)NC(=O)CCc2ccccc2)cc1 | -3.02
6 | Cn1c(=O)[nH]c(=O)c2c1nc(NCc1ccccc1)n2CC(O)c1ccccc1 (stereo not drawn) | -6.21
7 | CC1CCc2cc(F)ccc2N1C(=O)c1cccs1 (stereo not drawn) | 8.06
8 | O=C(NC1CCCCCC1)C1CCC(=O)N(Cc2ccccc2F)C1 (stereo not drawn) | 4.73
9 | Cc1ccc(C(=O)/C=C/c2ccc(F)cc2)o1 | -8.48
10 | C=CCn1c(Cc2cccs2)nnc1SCC(=O)Nc1cccc(OC)c1 | -15.1
11 | COC(=O)[C@H]1[C@@H](C)N(Cc2ccccc2)C(=O)N[C@H]1c1cccc(C(F)(F)F)c1 | -4.26
12 | CCN(CC)CCCN=C(C)C1=C(O)c2ccccc2C1=O | -41.2
13 | O=C1N/C(=C\c2nc3ccccc3s2)c2ccccc21 | 8.56
14 | O=C(NC1CC1)c1sc2ccccc2c1Cl | 10.7
15 | CCOc1cc(C)c(Cl)cc1S(=O)(=O)NCc1ccco1 | 2.98
16 | CCCCCCCNC(=O)C1(CC2CC(c3cccc(Br)c3)=NO2)CCN(C(=O)c2ccccc2)CC1 (stereo not drawn) | -71
17 | O=c1c2ccccc2ncn1CCCCOc1ccccc1F | -13.7
18 | O=C(c1ccc2c(c1)OCO2)N1CCN(c2ccccn2)CC1 | -5.9
19 | O=C(COC(=O)c1ccccc1)Nc1ccc(Cl)cc1C(=O)c1ccccc1 | 5.86
20 | CCC(=O)N1CCc2cc(S(=O)(=O)NCCC(=O)N3CC=C(c4ccccc4)CC3)ccc21 | -10.3
21 | CCn1c2ccccc2c2cc(NC(=O)COC(=O)c3ccccc3O)ccc21 | 20.9
22 | CCOC(=O)c1[nH]cnc1C(=O)NC1CCN(C(=O)OC(C)(C)C)CC1 | 9.17

Row | SMILES | hERG current change (%, negative = inhibition) at 10uM [%]
23 | CCOc1cc(NC(=O)CC(C)C)c(OCC)cc1NC(=O)CCn1nnc2ccccc21 | 10.1
24 | COCCn1c(N/N=C(C)/C=C/c2ccccc2)nc2c1c(=O)[nH]c(=O)n2C | -4.1
25 | CCOc1ccc(N(CC(=O)N2CCc3ccccc32)S(=O)(=O)c2c(C)noc2C)cc1 | -4.59
26 | Cc1ccc(OCC(O)Cn2c(N)nc3c2c(=O)n(C)c(=O)n3C)cc1 (stereo not drawn) | -12.7
27 | Cc1cccc(Cn2cnc3c(NS(C)(=O)=O)c(C)c(C)cc32)c1 | 11
28 | CC1(c2ccccc2)CC(C)(C)N(C(N)=O)c2ccccc21 (stereo not drawn) | -10.4
29 | Cc1cc(=O)oc(C)c1C(=O)NCC1CCCO1 (stereo not drawn) | -6.89
30 | COc1cccc(C(=O)N2CCC(n3nccc3NC(=O)C(OC)c3ccccc3)CC2)c1 (stereo not drawn) | -1.12
31 | COc1ccc(/C=C/C(=O)Nc2nonc2NC(C)=O)cc1 | 17.7
32 | O=c1c2ccccc2oc2cc(C#Cc3ccccn3)ccc12 | 7.36
33 | Cc1ccc(S(=O)(=O)NCCC(=O)NCc2ccccc2)cc1 | -1.91
34 | O=C1N/C(=N/S(=O)(=O)Cc2ccccc2)S/C1=C/c1ccc2c(c1)OCO2 | 0.744
35 | CC1=Nc2ccc(C)cc2/C1=C/c1c(N)n2nc(CC(=O)N3CCOCC3)sc2nc1=O | 20.2
36 | C=CCN1C(=O)/C(=C/c2ccsc2)SC1=S | 21.5
37 | CCSc1nsc(NC(=O)Nc2ccccc2OC)n1 | 10.5
38 | COc1ccc(-n2c(Cc3ccccc3)nnc2SCC(=O)N2CCCc3ccccc32)cc1 | -53.9
39 | CCn1cc(/C=N\NC(=O)COc2cccc(C)c2C)c(C)n1 | -22.6
40 | O=C(c1ccncc1)N(Cc1cc2ccccc2[nH]c1=O)C1CCCCC1 | -2.86
41 | Cc1cccc(NC(=O)CN2C(=O)N/C(=C/c3cc(C)n(-c4cccnc4)c3C)C2=O)c1 | 18.8
42 | O=C(CCn1nnc2ccccc2c1=O)N[C@@H](Cc1ccccc1)C(=O)O | 5.05
43 | O=C(N1CCOCC1)N1CCN(S(=O)(=O)N2CCOCC2)CC1 | 11.3
44 | Cc1cccc(OCCCC(=O)Nc2ccc(N3CCCCC3)cc2)c1C | 11.5

Row | SMILES | hERG current change (%, negative = inhibition) at 10uM [%]
45 | Cc1nonc1CC(=O)N1CCCC(C(=O)c2ccc(Cl)cc2)C1 (stereo not drawn) | -8.66
46 | CSc1cccc(NC(=O)CSc2ccc(C)cc2)c1 | 9.17
47 | Cc1ccc(NC2(C#N)C(=O)Nc3ccccc32)cc1 (stereo not drawn) | 5.81
48 | COc1ccc(OC)c(-n2c(-c3ccc(S(C)(=O)=O)cc3)cc(C=O)c2C)c1 | -32.4
49 | C[n+]1ccc(/C=N/Nc2nc(Cl)c(C#N)c(Cl)c2Cl)cc1.[Cl-] | 20.2
50 | CC(C)Nc1c(N)c(=O)oc2ccccc12 | 9.17
51 | CCC(=O)c1cn(CC(=O)Nc2cccc(C)c2)c2ccccc12 | 11
52 | O=C(/C=C/Nc1ccc(F)c(Cl)c1)c1ccccc1 | 16.8
53 | CCOC(=O)C1CCN(Cc2cc(=O)oc3cc(C)ccc23)CC1 | -47.8
54 | CC(OC(=O)CC1CC2CCC1C2)C(=O)Nc1ccc(N2CCOCC2)cc1 (stereo not drawn) | 6.7
55 | CCO.O=c1[nH]c(NNC(=S)NC2CCCCC2)nc2c1C1(CCCC1)Cc1ccccc1-2 | 8.58
56 | O=C(c1cc2ccccc2oc1=O)N1CCN(Cc2ccc3c(c2)OCO3)CC1 | -53.7
57 | O=C(Nc1ccc(F)c(F)c1)C1CCCN1S(=O)(=O)c1ccc(F)cc1 (stereo not drawn) | 10.5
58 | CN(CC(=O)Nc1ccc(Cl)c(Cl)c1)Cc1nnc(-c2ccc(F)cc2)o1 | -63.3
59 | O=C(N/N=C/C1C(c2ccccc2)C1(Cl)Cl)c1cccc(Cl)c1 (stereo not drawn) | -14.5
60 | COc1ccc(NC(=O)CN(C)C(=O)c2ccc(N3CCCCC3)c([N+](=O)[O-])c2)cc1 | -76.8
61 | CCCc1nc2ccccc2c(=O)n1CC(=O)c1ccc(F)cc1 | 6.68
62 | O=C(CC(c1ccccc1)c1ccccc1)Nc1ccc2c(c1)OCCO2 | -9.02
63 | CCc1ccccc1NC(=O)c1cc([N+](=O)[O-])ccc1N1CCOCC1 | -16.5
64 | Cc1ccc(C(=O)NCC(=O)OCn2nnc3ccccc3c2=O)cc1 | 1.84
65 | COc1ccc(C(=O)COC(=O)Cc2n[nH]c(=O)c3ccccc23)c(OC)c1 | 16.7
66 | CCCn1c(NCc2c[nH]c3ccccc23)nc2ccccc21 | -34.6

Row | SMILES | hERG current change (%, negative = inhibition) at 10uM [%]
67 | Cc1cccc(OCC(=O)N2CCN(S(C)(=O)=O)CC2)c1 | 11.2
68 | CC(C)C(=O)Nc1cccc(-c2cnc3ccccc3n2)c1 | 4.12
69 | COc1ccc(NC(=S)NC(=O)/C=C/c2ccccc2)cc1 | 2.26
70 | COc1ccc(NS(=O)(=O)c2cccc(C(=O)NNC(=O)c3ccc(O)c(Cl)c3)c2)cc1 | -0.207
71 | CC(C)c1ccccc1NC(=O)CNC(C)c1ccc(F)cc1 (stereo not drawn) | 11.8
72 | COc1ccc(S(=O)(=O)Nc2c(C(=O)O)[nH]c3ccccc23)cc1 | 6.47
73 | CCOC(=O)C1(Cc2cccc(Cl)c2)CCCN(C(=O)c2occc2C)C1 (stereo not drawn) | -13.9
74 | COc1ccc(NC2CCCN(C(=O)CCCn3cncn3)C2)cc1OC (stereo not drawn) | 6.66
75 | O=C(NCCO)C(=O)Nc1cc2c3c(c1)CCC(=O)N3CCC2 | 12.3
76 | CCOC(=O)C(CC)/C(C)=N\NC(=O)CCC(=O)Nc1ccc(Cl)cc1Cl (stereo not drawn) | -7.86
77 | COc1ccc(CNC(=O)CSc2nc3ccc(N)cc3s2)cc1 | -8.02
78 | Cc1c(OCC(=O)N(C)c2ccccc2)ccc2c3c(c(=O)oc12)CCC3 | -29.9
79 | COc1ccc(Nc2cc(C(=O)NCc3cccnc3)c3ccccc3n2)c(OC)c1 | -17.8
80 | CN(Cc1c(F)cccc1Cl)C(=O)c1cc2ccccc2o1 | -9.31
81 | O=[N+]([O-])[N-][n+]1cnn(Cc2ccccc2)c1 | 11.6
82 | Cc1cc(C)c2[nH]c(=O)c(C(c3nnnn3CC3CCCO3)N3CCC(C)CC3)cc2c1 (stereo not drawn) | -15.3
83 | O=C(NCC(=O)N1CCN(c2ccccc2)CC1)c1ccc(Br)o1 | -39.9
84 | Cc1cc(Nc2ccc(Br)cc2)nc(-c2ccccc2O)n1 | 19.9
85 | Brc1ccc(-c2nnc3sc(CN4CCN(c5ccccc5)CC4)cn23)cc1 | -1.83
86 | O=C(CN1C(=O)COc2ccccc21)N(Cc1ccccc1)Cc1ccccn1 | -24.4
87 | C=CC[N+](C)(C)C/C(Cl)=C(\Cl)c1ccccc1.[Br-] | -5.01
